# Reference: the supplement of paper PMC4604168 (melanoma cell lines)
# Some of the results follow. Single values are uncertain, as repeats are few or missing.
# System: RVH-421
# Assay: cell count relative to DMSO control; melanoma cells; higher = more viable cells
# Details: library dose: low library concentration; 72 h
# 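Also: cell number obtained by counting DAPI-stained nuclei in high-throughput microscope images with image analysis software, screen run in 1,536-well plates.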
row,Structure (SMILES),cell count [%]
1,"Nc1ccn([C@@H]2O[C@H](CO)[C@@H](O)C2(F)F)c(=O)n1 [gemcitabine] + O=C(CCCCCCC(=O)Nc1ccccc1)NO [vorinostat] (first compound 0.0004 µM, partner dose 0.08 µM)",86
2,"Nc1nc(F)nc2c1ncn2[C@@H]1O[C@H](CO)[C@@H](O)[C@@H]1O [fludarabine] + Oc1nc(-c2ccc(C(F)(F)F)cc2)nc2c1CSCC2 [XAV939] (first compound 0.2 µM, partner dose 2 µM)",85.5
3,"Nc1ccn([C@@H]2O[C@H](CO)[C@@H](O)C2(F)F)c(=O)n1 [gemcitabine] + O=C(Nc1ccccc1)c1cc([N+](=O)[O-])ccc1Cl [GW9662] (first compound 0.0004 µM, partner dose 2 µM)",97.7
4,"CO[C@H]1C[C@@H]2CC[C@@H](C)[C@@](O)(O2)C(=O)C(=O)N2CCCC[C@H]2C(=O)O[C@H]([C@H](C)C[C@@H]2CC[C@@H](OCCO)[C@H](OC)C2)CC(=O)[C@H](C)/C=C(\C)[C@@H](O)[C@@H](OC)C(=O)[C@H](C)C[C@H](C)/C=C/C=C/C=C/1C [everolimus] + COc1ccc(Cl)c(Nc2nc3ccccc3nc2NS(=O)(=O)c2cccc(NC(=O)C(C)(C)N)c2)c1 [XL147] (first compound 0.02 µM, partner dose 0.8 µM)",76.1
5,"Nc1ccn([C@@H]2O[C@H](CO)[C@@H](O)C2(F)F)c(=O)n1 [gemcitabine] + C#Cc1cccc(Nc2ncnc3cc(OCCOC)c(OCCOC)cc23)c1 [erlotinib] (first compound 0.0004 µM, partner dose 0.8 µM)",103
